The IC50 comes from the fitted curve, where viability falls to half of the control; a fit beyond the top or the lowest dose is shown as a bound at that dose. AUC sums up the same curve from the lowest dose to the 256-fold higher top dose; values near 1 show little effect. Where the top dose is marked as inferred, it comes from the curve model; the source does not state it.
How the values were obtained:
Assay in all cases: Viability of human cancer cell lines after 72 h of drug (GDSC screen)
FH535 = compound: Cc1cc([N+](=O)[O-])ccc1NS(=O)(=O)c1cc(Cl)ccc1Cl [FH535]; conditions: top dose 32 µM; top dose inferred
Experimental: (§1)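 Human cancer cell lines in 384-well plates, medium with 10% serum, drug for 72 h over a 256-fold dose range (nine 2-fold or five 4-fold steps up to the top dose). Adherent lines were fixed and stained with the nucleic acid dye Syto60, suspension lines read with resazurin; signal relative to control wells, capped at 0 and 100%. One two-parameter sigmoid per drug and line, fitted in a mixed model over all curves with the slope shared within a line.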

XMD14-99 = compound: COc1cc(N2CCN(C)CC2)ccc1Nc1nc(N)c(C(=O)c2c(Cl)cccc2Cl)s1 [XMD14-99]; conditions: top dose 10.24 µM; top dose inferred
Experimental: as §1

AT-7519 = compound: O=C(NC1CCNCC1)c1n[nH]cc1NC(=O)c1c(Cl)cccc1Cl [AT-7519]; conditions: top dose 10.24 µM; top dose inferred
Experimental: as §1

Row | Cell Line | AUC (FH535) | IC50 (FH535) [µM] | AUC (XMD14-99) | IC50 (XMD14-99) [µM] | AUC (AT-7519) | IC50 (AT-7519) [µM]
1 | NCI-H2087 (lung adenocarcinoma, semi-adherent) | 0.496 | 1.95 | 0.972 | > 10.2 | 0.408 | 0.351
2 | NCI-H2110 (non-small cell lung carcinoma, adherent) | 0.636 | 4.8 | 0.981 | > 10.2 | 0.595 | 1.17
3 | NCI-H2122 (lung adenocarcinoma, adherent) | 0.419 | 1.22 | 0.988 | > 10.2 | 0.921 | > 10.2
4 | NCI-H2170 (lung squamous cell carcinoma, adherent) | 0.386 | 0.958 | 0.982 | > 10.2 | 0.892 | > 10.2
5 | NCI-H2172 (non-small cell lung carcinoma, adherent) | 0.851 | > 32 | 0.975 | > 10.2 | 0.934 | > 10.2
6 | NCI-H2227 (small cell lung carcinoma, semi-adherent) | 0.737 | 10.5 | 0.952 | > 10.2 | 0.578 | 1.08
7 | NCI-H2228 (lung adenocarcinoma, adherent) | 0.783 | 21.7 | 0.863 | > 10.2 | 0.861 | > 10.2
8 | NCI-H2291 (lung adenocarcinoma, adherent) | 0.908 | > 32 | 0.975 | > 10.2 | 0.982 | > 10.2
9 | NCI-H2342 (lung adenocarcinoma, adherent) | 0.631 | 4.78 | 0.986 | > 10.2 | 0.851 | 9.15
10 | NCI-H2347 (lung adenocarcinoma, adherent) | 0.669 | 6.59 | 0.978 | > 10.2 | 0.717 | 3.06
11 | NCI-H2405 (lung adenocarcinoma, adherent) | 0.511 | 2.15 | 0.985 | > 10.2 | 0.843 | 8.41
12 | NCI-H2444 (non-small cell lung carcinoma, adherent) | 0.966 | > 32 | 0.986 | > 10.2 | 0.967 | > 10.2
13 | NCI-H2452 (mesothelioma, adherent) | 0.967 | > 32 | 0.981 | > 10.2 | 0.984 | > 10.2
14 | NCI-H3122 (lung adenocarcinoma, adherent) | 0.658 | 5.58 | 0.905 | > 10.2 | 0.46 | 0.495
15 | NUGC-3 (stomach, adherent) | 0.614 | 4.3 | 0.981 | > 10.2 | 0.746 | 3.59
16 | NUGC-4 (stomach, adherent) | 0.76 | 11.3 | 0.982 | > 10.2 | 0.941 | > 10.2
17 | NY (osteosarcoma, adherent) | 0.619 | 4.23 | 0.986 | > 10.2 | 0.987 | > 10.2
18 | OAW-28 (ovary, adherent) | 0.751 | 13.1 | 0.975 | > 10.2 | 0.84 | 9.92
19 | OAW-42 (ovary, adherent) | 0.537 | 2.54 | 0.985 | > 10.2 | 0.855 | 9.25

Row | Cell Line | AUC (FH535) | IC50 (FH535) [µM] | AUC (XMD14-99) | IC50 (XMD14-99) [µM] | AUC (AT-7519) | IC50 (AT-7519) [µM]
20 | OCUM-1 (stomach, adherent) | 0.205 | 0.239 | 0.981 | > 10.2 | 0.931 | > 10.2
21 | OE19 (oesophagus, adherent) | 0.616 | 4.35 | 0.985 | > 10.2 | 0.984 | > 10.2
22 | OE21 (oesophagus, adherent) | 0.659 | 6.55 | 0.978 | > 10.2 | 0.807 | 7.86
23 | OE33 (oesophagus, adherent) | 0.718 |  | 0.976 | > 10.2 | 0.835 | 8.62
24 | OSC-19 (head and neck, adherent) | 0.791 | 15 | 0.987 | > 10.2 | 0.61 | 1.3
25 | OSC-20 (head and neck, adherent) | 0.557 | 2.95 | 0.971 | > 10.2 | 0.762 | 4.32
26 | OVCAR-3 (ovary, adherent) | 0.666 | 6.1 | 0.987 | > 10.2 | 0.983 | > 10.2
27 | OVCAR-5 (ovary, adherent) | 0.817 | 22.7 | 0.977 | > 10.2 | 0.497 | 0.627
28 | OVCAR-8 (ovary, adherent) | 0.646 | 4.83 | 0.99 | > 10.2 | 0.715 | 2.41
29 | OVISE (ovary, adherent) | 0.671 | 7.08 | 0.981 | > 10.2 | 0.594 | 1.26
30 | OVKATE (ovary, adherent) | 0.917 | > 32 | 0.967 | > 10.2 | 0.791 | 8.68
31 | OVMIU (ovary, adherent) | 0.678 | 7.15 | 0.978 | > 10.2 | 0.447 | 0.444
32 | OVTOKO (ovary, adherent) | 0.682 | 7.49 | 0.952 | > 10.2 | 0.862 | > 10.2
33 | P12-ICHIKAWA (T-cell lymphoblastic leukaemia, suspension) | 0.809 | 12.3 | 0.951 | > 10.2 | 0.251 | 0.152
34 | PA-1 (ovary, adherent) | 0.564 | 2.87 | 0.926 | > 10.2 | 0.26 | 0.16
35 | PA-TU-8902 (pancreas, adherent) | 0.616 | 4.41 | 0.98 | > 10.2 | 0.736 | 3.44
36 | PA-TU-8988T (pancreas, adherent) | 0.459 | 1.55 | 0.987 | > 10.2 | 0.634 | 1.5
37 | PANC-02-03 (pancreas, adherent) | 0.693 | 7.81 | 0.982 | > 10.2 | 0.692 | 2.49

Source: the supplement of paper PMC4967469
